The other results are listed elsewhere or left out. These are further read-outs of the screen, such as a control signal, another cell line or another target. No call is given for them. Most of these compounds were active or inconclusive in the main read-out, so they are no random draw.
Experiment: growth inhibition of WT strain, primary screen, mitochondrial fusion inhibitor project, WT and mutant strains, chemical genetic (AID 1362); further: tested in S. cerevisiae
Conditions: mitochondrial fusion phenotypic screen, at 10 µM

| Compound | inhibition [%] |
| --- | --- |
| Cc1cc(C)c(N2CCN(S(=O)(=O)N3CCCCCC3)CC2)c(C)c1 | 16.9 |
| CCC(CO)[n+]1c(C)cc(/C=C2\Sc3ccccc3N2Cc2ccccc2)cc1C (centres undefined) | 42.5 |
| C/C(CCc1ccc2c(c1)OCO2)=N\N=C(/N)SC1CC(=O)N(c2ccc(Cl)cc2)C1=O (centres undefined) | 45 |
| Cc1nn(C(=O)C2CC2)c(C)c1Sc1ccc(Cl)cc1 | 31.1 |
| CCN(CC)c1ccc2c(Cl)c(Br)c(=O)oc2c1 | 67.2 |
| N#CCC(=O)N/N=C/c1cc(-c2ccccc2)n(-c2ccc(Cl)cc2)c1-c1ccccc1 | -27.9 |
| Cc1ccc(N(C(=O)c2ccccc2Cl)C2=NC(C)CS2)c(C)c1 (centres undefined) | 10.4 |
| Oc1ccc(/C=N/N2CCN(C3c4ccccc4-c4ccccc43)CC2)c(O)c1 | 95.4 |
| COC(=O)c1ccc(-c2ccco2)n1Cc1cccc(C)c1 | 22.1 |
| Oc1ccc(N=Nc2c(O)ccc3ccccc23)cc1 | 54.1 |
| O=C(/C=C/c1cccc(Br)c1)N1CCN(c2cccc(C(F)(F)F)c2)CC1 | 54.5 |
| CC[C@@H](C)[C@H](NC(=O)OC(C)(C)C)c1nnc(S(=O)(=O)Cc2cc(C)ccc2C)o1 | 19.4 |
| CCCOc1ccc(CSCCNC(=S)Nc2ccccc2)cc1 | 30.2 |
| CC1Cc2ccccc2N1c1ncnc2c1nnn2Cc1ccccc1 (centres undefined) | 42.6 |
| CCOC(=O)C1CCN(c2nc3ccccc3nc2C(C#N)C(=O)NCCc2ccccc2)CC1 (centres undefined) | 5.65 |
| CCCCCCCSc1nnc(-c2ccccc2N)c(=O)[nH]1 | 60.1 |
| CSc1nc2ccc(NS(=O)(=O)c3c(Cl)cccc3Cl)cc2s1 | 10.1 |
| CN(C)S(=O)(=O)N1CCN(CC(O)COc2ccc3cc(Br)ccc3c2)CC1 (centres undefined) | 97.6 |
| c1ccc2c(c1)CC/C2=N/Nc1nc2ccccc2[nH]1 | 55.8 |
| CC(c1ccccc1)N(CC(=O)NC1CCCCC1)S(=O)(=O)c1cccc(C(F)(F)F)c1 (centres undefined) | -4.35 |
| N=c1c2c(ncn1Cc1ccco1)Oc1c(ccc3ccccc13)C2c1ccccc1 (centres undefined) | 40.3 |
| CC(C)OC(=O)c1cccnc1N1CCN(c2cccc(Cl)c2)CC1 | 68.5 |

| Compound | inhibition [%] |
| --- | --- |
| CN(Cc1ccc(OC(F)F)cc1)Cc1nc2c(Br)cc(Br)cc2c(=O)[nH]1 | 42.1 |
| CCCCNc1c2c3c(cccc3n(C)c1=O)C(=O)c1ccccc1-2 | 17.6 |
| N#Cc1ccc(NC(=O)Nc2ccc(Cl)cc2)cc1 | 26.9 |
| COC(=O)c1c(NC(NC(=O)C(C)(C)C)C(Cl)(Cl)Cl)sc2c1CCC2 (centres undefined) | 35.7 |
| COc1ccc(N=c2cc(-c3ccc(OC)cc3)oc3ccccc23)cc1 | 75.7 |
| COC(=O)c1ccc(-c2sc3nc(N4CCOCC4)c4c(c3c2N)CCCC4)o1 | 1.78 |
| Clc1cccc(Cl)c1/C=C/c1nc2ccccc2[nH]1 | 64.7 |
| CCOC(=O)c1c(NC(NC(C)=O)C(Cl)(Cl)Cl)sc2c1CCCC2 (centres undefined) | 21.9 |
| CCCCn1c(N2CCC(Cc3ccccc3)CC2)nc2c1c(=O)[nH]c(=O)n2C | -2.4 |
| CCCc1nc(SCC(=O)N2CCC(Cc3ccccc3)CC2)c2c(=O)n(C)c(=O)n(C)c2n1 | 46.8 |
| Cc1ccc(Nc2ncccc2C(=O)NCc2cccs2)c(C)c1 | 66.9 |
| CCOC(=O)c1c(-c2ccc(OC)cc2)csc1/N=C/C1=C(O)CCCC1=O | 5.19 |
| Cc1cc(OCC(=O)Nc2ccncc2)c(C)cc1Br | 51.8 |
| Oc1ccc(Cl)cc1-c1cc(-c2cccc(Br)c2)n[nH]1 | 68.6 |
| COc1ccc(OC)c(S(=O)(=O)Nc2ccc(O)c3ccccc23)c1 | 57.4 |
| N/N=C(/Cc1nc2ccccc2[nH]1)c1ccc([N+](=O)[O-])cc1 | 88.8 |
| Cc1cccc(N2CCN(C(=O)c3ccc(Cl)c(S(=O)(=O)NCc4ccco4)c3)CC2)c1C | 10.3 |
| COc1cccc(OC)c1OCCCCN1CCCC1 | 4.58 |
| Clc1ccc(-c2nnnn2-c2ccc(Cl)c(Cl)c2)cc1Cl | 74.8 |
| N=c1c2c(n(Cc3ccccc3)c3c1CCC3)CCC2 | 38 |
| Cc1ccc(N=Cc2c(C)[nH]n(-c3nc4ccccc4[nH]3)c2=O)cc1 | 82 |
| COc1ccc(Nc2nc(C(=O)N3CCc4ccccc4C3)cs2)cc1 | 49.6 |

| Compound | inhibition [%] |
| --- | --- |
| CC(C)c1nc(N2CCCC2)c(C#N)c2c1CCCC2 | 36.6 |
| COc1ccc(/C=N/Nc2cc(C)nc(-n3nc(C)cc3C)n2)cc1 | 22.6 |
| COc1ccc2cc3cc(C(=O)NCCN4CCc5ccccc5C4)sc3nc2c1 | 39.4 |
| Nn1c(SCC(=O)Nc2ccc3c(c2)OCO3)nnc1-c1ccncc1 | 20.8 |
| CSc1ccc(OC2CCCCC2NS(=O)(=O)c2ccc(Cl)cc2)cc1 (centres undefined) | 19.2 |
| CC(=O)C(N=Nc1ccccc1)(Sc1nnc(-c2ccccc2)n1-c1ccccc1)C(C)=O | -12.3 |
| S=C1NC(C23CC4CC(CC(C4)C2)C3)=CC(c2ccc3c(c2)OCO3)N1 (centres undefined) | 12.2 |
| CC(O)CNc1nc2sc3c(c2c(=O)n1CCc1ccccc1)CCCCC3 (centres undefined) | 27.7 |
| COc1cccc(NC(=S)N/N=C2\CC3CCC2(C)C3(C)C)c1 (centres undefined) | 46 |
| Cc1ccc(NC2=C/C(=N\S(=O)(=O)c3cccs3)c3ccccc3C2=O)c(C)c1 | 61.4 |
| O=[N+]([O-])c1ccc(Oc2cccc3cccnc23)c([N+](=O)[O-])c1 | 47.3 |
| Cc1ccccc1NC(=S)NCc1ccc2[nH]c3c(c2c1)CCCC3 | 55.3 |
| Cc1ccccc1C(=O)Nc1nnc(-c2ccc(F)cc2)o1 | 61.7 |
| COc1ccccc1-n1cnnc1SCC(=O)Nc1cc(C(C)(C)C)nn1-c1ccccc1 | 16.2 |
| CCOC(=O)C1CCN(c2c(C(=O)c3ccccc3)cnc3ccc(Cl)cc23)CC1 | 75.1 |
| COCCNC(=S)NCCc1ccc(Cl)cc1Cl | 48.1 |
| c1ccc(N/N=C(\Cc2nc3ccccc3[nH]2)c2ccccc2)cc1 | 43.3 |
| CCCCCc1ccc(OCCCC[n+]2ccc(C)cc2)c(CCCCC)c1 | 93.9 |
| CCOC(=O)c1c(C)[nH]c(C(=O)OCC(=O)Nc2cc(Cl)ccc2OC)c1C | -0.08 |
| Cc1oc(-c2ccccc2F)nc1CN1CCC(C(=O)NCCC2=CCCCC2)CC1 | -7.18 |
| CC1CN(Cc2ccccc2)c2ccccc2NC1=S (centres undefined) | 29.4 |
| Cc1ccc(OCC(=O)c2ccc3c(c2)CCCC3)cc1C | 38.6 |

| Compound | inhibition [%] |
| --- | --- |
| COc1ccccc1NC(=S)NNC(=O)c1c(Cl)c(C)nn1C | 7.7 |
| Cc1cc(N2CCN(c3ccccc3Cl)CC2)n2cc(-c3ccccc3)nc2n1 | 47.2 |
| O=C(Nc1nc(-c2cc(Cl)sc2Cl)cs1)c1ccccc1 | 53.4 |
| Cc1ccc(SCCNC(=S)Nc2ccc(C)cc2C)cc1 | 40.3 |
| CCn1c(-c2cc(-c3ccc(C)c(C)c3)nc3ccccc23)n[nH]c1=S | 49.1 |
| N=c1c2c(n(Cc3ccc(Cl)c(Cl)c3)c3c1CCC3)CCCC2 | 61.4 |
| Nc1nc2ccc(S(=O)(=O)N3CCCCC3)cc2s1 | 59.9 |
| Cc1ccc(C(=O)Nc2cc(Cl)ccc2N2CCCCC2)s1 | 16.3 |
| Clc1ccccc1Cn1c(/C=C/c2ccco2)nc2ccccc21 | 2.67 |
| C=CCc1cccc(/C=N/NC(=O)CNc2cccc3ccccc23)c1O | 56.3 |
| O=C(Nc1ccc([N+](=O)[O-])cc1)Nc1ccc(OC(F)F)c(Cl)c1 | 81.1 |
| CCOC(=O)c1cnc(-n2nc(C)cc2C)nc1NC1CCCCC1 | 82.3 |
| O=[N+]([O-])c1ccc(NC(=S)NCCc2ccc(Cl)cc2)cc1 | 78.2 |
| CCOC(=O)N1CCN(CC(O)COC2CC(C)CCC2C(C)C)CC1 (centres undefined) | -10.5 |
| CC1(C)OC(=O)N(c2ccccc2)C12C=Cc1c(ccc3ccccc13)O2 (centres undefined) | 20.6 |
| O=C(Nc1ncc(Br)s1)C(Cc1ccccc1)n1cccc1 (centres undefined) | 52 |
| Fc1cccc(CCN2C(=S)NC[C@@H]2Cc2ccccc2)c1 | 60.1 |
| CCCCc1ccc(NC(=S)Nc2ccc(Cl)c(S(=O)(=O)N(C)C)c2)cc1 | 10.1 |
| CC1Cc2ccccc2N1C(=S)NC(=O)c1ccc(Cl)cc1Cl (centres undefined) | 59.7 |
| Cc1cccc(NC(=S)c2nc3ccccc3s2)c1 | 56.9 |
| O=C(Nc1cccc(Cl)c1)C1C2CCC3C(CCC21)C3(Cl)Cl (centres undefined) | 45.2 |
| O=C(c1cc(-c2ccc(Cl)cc2)n(-c2ccc(Cl)c(Cl)c2)n1)N1CCOCC1 | -8.28 |

| Compound | inhibition [%] |
| --- | --- |
| CCNc1nc(NCC)nc(SCCOC(=O)COc2ccc(Cl)cc2Cl)n1 | 49.5 |
| CCC(CC)c1nnc(NC(=O)c2ccc3ccccc3n2)s1 | 52.2 |
| O=C(Nc1nnc(C2CC2)o1)c1ccc(S(=O)(=O)N2CCCc3ccccc32)cc1 | 20.7 |
| O=[N+]([O-])c1cccnc1N1CCC(c2cc(-c3ccc(Cl)cc3)n[nH]2)CC1 | 43.7 |
| C[n+]1c2n(c3ccccc31)N=C(c1cc(C(C)(C)C)c(O)c(C(C)(C)C)c1)CS2 | 45.7 |
| Cc1ccc(NC(=S)N2CCC(c3ccc(C)cc3)C2)cc1 (centres undefined) | 60.5 |
| COc1ccc(NC(=S)NCCc2ccc(Cl)cc2)c(OC)c1 | 41.1 |
| CC1(C(=O)OCC(=O)c2c[nH]c3ccccc23)CC1(Cl)Cl (centres undefined) | -13.4 |
| CN1CCN(C2=Cc3ccccc3Sc3cc(F)ccc32)CC1 | 92.9 |
| S=C(Nc1cccc2ccccc12)NC1CCCCC1 | 28.9 |
| CCCCn1c(-c2csc3c2CCC(C)C3)n[nH]c1=S (centres undefined) | 42 |
| Cc1ccc(OCCSc2nc(NC(C)C)nc(NC(C)C)n2)cc1 | 14.2 |
| S=C(NCCSCc1ccc(Cl)cc1)Nc1ccccc1 | 63.5 |
| COc1ccc(C(C)C)cc1S(=O)(=O)N1CCN(c2ccccc2)CC1 | 33.4 |
| COCCN1CCN(c2cc(-c3ccccc3)nc3cc(-c4cccc(F)c4)nn23)CC1 | 67.6 |
| S=C(Nc1ccccc1Oc1ccccc1)Nc1cccc(Cl)c1Cl | 3.27 |
| Cc1cccc(NC(=S)NC(C)(C)CC(C)(C)C)c1 | 63.3 |
| Cc1nc2cc(-c3ccc(Cl)cc3)nn2c(C)c1CCC(=O)NC(C)c1ccc2c(c1)OCCO2 (centres undefined) | 65.9 |
| Cc1onc(-c2ccccc2)c1C(=O)N/N=C/C(Br)=C/c1ccccc1 | 52.4 |
| CCC(C(=O)Nc1ccc(OC)c(Cl)c1)c1ccccc1 (centres undefined) | 48.7 |
| O=C1c2ccccc2-n2c1nc1ccccc1c2=O | 57.8 |

Source: PubChem BioAssay AID1362 (SRMLSC, 2008)
